Results are given in words; binding and its absence hold for the method and conditions named. For part of these data: In cells and extracts the contact can be indirect. Some binding calls cover weakened binding; strength is not graded here. For part of these data: Sequences can lack the tags named with a protein. Blank lines part the entries; values can stand above or below the substance they belong to.
Assays:
GST-NXF1-p15 = target: T1, GST-NXF1-p15 (UniProt Q9UBU9); assay: pull-down; competition: GST-NXF1-p15 complexed with GB1-UIF, increasing amounts of GB1-6His-REF2-I; Coomassie staining; both purified
T1 sequence 1: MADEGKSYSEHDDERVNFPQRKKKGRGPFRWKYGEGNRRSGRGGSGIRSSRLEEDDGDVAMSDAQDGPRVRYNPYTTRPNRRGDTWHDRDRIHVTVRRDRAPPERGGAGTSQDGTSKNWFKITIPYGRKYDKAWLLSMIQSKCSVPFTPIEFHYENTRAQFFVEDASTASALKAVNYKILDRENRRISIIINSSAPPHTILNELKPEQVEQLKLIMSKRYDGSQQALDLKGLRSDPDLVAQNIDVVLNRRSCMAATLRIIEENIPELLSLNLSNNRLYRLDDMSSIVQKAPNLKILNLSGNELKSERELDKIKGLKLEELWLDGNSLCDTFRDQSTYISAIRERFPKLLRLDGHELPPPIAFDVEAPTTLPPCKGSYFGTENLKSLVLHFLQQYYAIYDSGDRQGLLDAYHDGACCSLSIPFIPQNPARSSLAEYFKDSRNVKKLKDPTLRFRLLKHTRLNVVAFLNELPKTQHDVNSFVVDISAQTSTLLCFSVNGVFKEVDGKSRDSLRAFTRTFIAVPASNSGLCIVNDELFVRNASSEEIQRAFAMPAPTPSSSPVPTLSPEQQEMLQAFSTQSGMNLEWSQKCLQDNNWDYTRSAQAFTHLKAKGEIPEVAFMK
T1 sequence 2: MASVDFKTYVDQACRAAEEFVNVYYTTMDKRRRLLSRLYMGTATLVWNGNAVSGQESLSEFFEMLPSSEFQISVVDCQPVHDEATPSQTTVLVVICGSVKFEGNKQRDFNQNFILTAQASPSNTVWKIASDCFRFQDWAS

Sequences of proteins named here, by UniProt entry; tags and fusion partners are left off.
UniProt Q9Y5B9: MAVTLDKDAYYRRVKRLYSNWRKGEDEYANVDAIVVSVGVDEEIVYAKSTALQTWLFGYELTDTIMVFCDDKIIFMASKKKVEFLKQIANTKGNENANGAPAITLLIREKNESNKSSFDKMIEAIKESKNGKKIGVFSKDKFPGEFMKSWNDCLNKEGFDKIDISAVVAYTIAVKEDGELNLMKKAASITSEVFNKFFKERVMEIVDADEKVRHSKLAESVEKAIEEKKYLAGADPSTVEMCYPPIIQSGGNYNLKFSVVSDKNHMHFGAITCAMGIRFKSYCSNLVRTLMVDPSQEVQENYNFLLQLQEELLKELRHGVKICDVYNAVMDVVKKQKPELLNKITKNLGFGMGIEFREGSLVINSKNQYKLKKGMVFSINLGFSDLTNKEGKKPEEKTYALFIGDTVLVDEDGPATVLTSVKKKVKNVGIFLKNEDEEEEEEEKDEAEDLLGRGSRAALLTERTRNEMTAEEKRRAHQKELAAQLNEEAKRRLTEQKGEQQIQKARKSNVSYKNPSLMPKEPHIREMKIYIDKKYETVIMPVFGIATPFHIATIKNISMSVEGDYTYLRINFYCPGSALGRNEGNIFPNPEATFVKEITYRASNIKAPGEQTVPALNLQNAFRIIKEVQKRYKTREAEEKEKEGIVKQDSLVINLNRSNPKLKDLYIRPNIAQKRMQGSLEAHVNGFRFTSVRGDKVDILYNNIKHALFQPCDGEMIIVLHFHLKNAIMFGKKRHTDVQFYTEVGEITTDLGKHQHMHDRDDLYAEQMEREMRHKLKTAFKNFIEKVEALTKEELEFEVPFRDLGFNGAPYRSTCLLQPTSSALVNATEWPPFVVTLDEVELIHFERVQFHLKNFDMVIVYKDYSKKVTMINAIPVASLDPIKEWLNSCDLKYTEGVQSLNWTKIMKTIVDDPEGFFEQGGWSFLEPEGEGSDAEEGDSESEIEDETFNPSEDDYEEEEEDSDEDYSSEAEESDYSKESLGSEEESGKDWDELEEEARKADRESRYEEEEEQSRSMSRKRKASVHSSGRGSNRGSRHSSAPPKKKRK
UniProt Q08945: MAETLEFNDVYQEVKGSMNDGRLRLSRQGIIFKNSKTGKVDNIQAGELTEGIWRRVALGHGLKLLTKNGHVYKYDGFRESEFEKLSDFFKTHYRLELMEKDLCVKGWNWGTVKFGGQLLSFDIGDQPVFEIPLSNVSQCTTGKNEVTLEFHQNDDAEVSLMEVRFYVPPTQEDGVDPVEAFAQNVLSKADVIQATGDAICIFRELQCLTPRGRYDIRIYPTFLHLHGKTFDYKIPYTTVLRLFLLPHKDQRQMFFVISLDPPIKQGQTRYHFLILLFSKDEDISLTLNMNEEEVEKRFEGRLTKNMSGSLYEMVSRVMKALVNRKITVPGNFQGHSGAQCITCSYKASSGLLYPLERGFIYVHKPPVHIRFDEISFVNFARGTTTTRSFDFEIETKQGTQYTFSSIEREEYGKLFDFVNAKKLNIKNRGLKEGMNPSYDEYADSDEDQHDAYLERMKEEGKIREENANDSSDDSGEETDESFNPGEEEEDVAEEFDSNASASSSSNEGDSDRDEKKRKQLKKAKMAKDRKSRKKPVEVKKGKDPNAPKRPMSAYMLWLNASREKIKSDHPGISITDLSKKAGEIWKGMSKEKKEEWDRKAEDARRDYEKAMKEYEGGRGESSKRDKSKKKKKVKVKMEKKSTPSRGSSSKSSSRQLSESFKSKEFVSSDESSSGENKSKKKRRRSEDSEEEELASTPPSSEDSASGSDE

FLAG-UIF (human) [1] = target: T2, FLAG-UIF (human) (UniProt Q96QD9); assay: co-IP; FLAG-UIF immunoprecipitates probed by western blot with the indicated antibodies
T2 sequence: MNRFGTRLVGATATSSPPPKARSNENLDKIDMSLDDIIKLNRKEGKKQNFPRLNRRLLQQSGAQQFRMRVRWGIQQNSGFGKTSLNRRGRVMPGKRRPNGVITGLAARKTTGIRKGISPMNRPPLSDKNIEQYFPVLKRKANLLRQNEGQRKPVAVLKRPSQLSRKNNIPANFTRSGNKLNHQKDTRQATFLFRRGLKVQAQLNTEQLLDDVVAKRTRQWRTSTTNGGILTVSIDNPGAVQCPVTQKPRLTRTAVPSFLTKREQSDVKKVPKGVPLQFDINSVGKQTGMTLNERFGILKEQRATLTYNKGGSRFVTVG

FLAG-REF2-I = FLAG-REF2-I (UniProt Q9JJW6); assay: co-IP; FLAG-REF2-I fusions and UAP56-Myc expressed in 293T cells; immunoprecipitation with the FLAG antibody, detection with FLAG and Myc antibodies
[2] = target: FLAG-REF2-I lacking amino acids 1-15 (UniProt Q9JJW6); assay: as above
[3] = target: FLAG-REF2-I lacking amino acids 198-218 (UniProt Q9JJW6); assay: as above
[4] = target: FLAG-REF2-I lacking amino acids 1-15 and 198-218 (UniProt Q9JJW6); assay: as above
FLAG-UIF (human) [5] = target: T2, FLAG-UIF (human); assay: co-IP; FLAG-UIF and Myc UAP56, FLAG immunoprecipitation in the presence of increasing amounts of recombinant NXF1-p15 (GST as control); detection with the 9E10 Myc antibody
FLAG-UIF (human) [6] = target: T2, FLAG-UIF (human); assay: co-IP; FLAG-UIF with Myc-tagged NXF1 or UAP56; immunoprecipitation with FLAG antibody, detection with FLAG and Myc antibodies; with and without RNase

binding (GST-NXF1-p15): binds
Substance: GB1-6His-REF2-I (from UniProt Q9JJW6 1-218)

binding (FLAG-UIF (human) [1]): binds
Substance: SPT16 (endogenous) (from UniProt Q9Y5B9 1-1047)

binding (FLAG-UIF (human) [1]): binds
Substance: SSRP1 (endogenous) (from UniProt Q08945 1-709)

binding (FLAG-REF2-I): binds
binding [2]: binds
binding [3]: binds
binding [4]: no binding
binding (FLAG-UIF (human) [5]): binds
binding (FLAG-UIF (human) [6]): binds
Substance: UAP56-Myc (from UniProt Q13838 1-428)
